# In PubChem BioAssay AID1345083 (National Center for Advancing Translational Sciences (NCATS), 2018):
# The campaign covered roughly 94,000 compounds. About 6,200 (6.6%) were called active. This list was built around the results that the source calls inconclusive (neither active nor inactive); the mix of calls is not that of the screen. Calls follow the shape of the dose curve; as a rule, active = well fitted inhibition curve with a large enough effect; inconclusive = small, poorly fitted or top-dose-only effect; inactive = flat fitted curve, though single readings scatter. A potency beside an inconclusive call is a rough fit, not a confirmed value.
# Experiment: Cytotoxic Profiling in HEK 293 Cell Line of Diverse Libraries Using Quantitative High-Throughput Screening; also: nearly all actives have a fitted effect of over 60% in size
# Settings: HEK 293 viability, ATP luminescence (CellTiter-Glo), 48-72 h; activity change, negative = cytotoxicity: at 115 µM (top of the series) unless noted; series mostly up to 115 µM
# Outline: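 Pintool-delivered compounds were incubated with HEK 293 cells (250 cells/well) at 37 degree Celsius for 48 or 72 hr. ATP-dependent luminescence (CellTiter-Glo) then reported remaining viable cells.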
# % is scaled to controls: 0 for no effect and ±100 for the full control effect; potency is read from the fitted curve at half-maximal effect; tags tell the direction and shape of the fitted curve.
Structure (SMILES),Potency,"activity change, negative = cytotoxicity",outcome
CN1CCCCCCN(CC2CCCCC2)[C@H]2CCC[C@H]2C1=O,"inconclusive: 39.8 µM [inhibitor, partial curve, poor fit]",–,–
Cc1ccc2nc(CO[C@H]3CN(Cc4ccc(Cl)cc4)C[C@H]3F)[nH]c2c1,active: 89.1 µM,–,–
COc1ccc2cc1Nc1ccc(cc1)C[C@H](NC(=O)Cc1cccc(Cl)c1)C(=O)N(C)[C@H](C(=O)NCCC(C)C)C2,"inconclusive: 25.1 µM [inhibitor, full curve]",–,–
Cc1cccc(S(=O)(=O)N2CCc3c(C(=O)NC(C)C)cccc32)c1,"inconclusive: 56.2 µM [inhibitor, partial curve, poor fit]",–,–
O=C(Nc1ccc2c(c1)OCCO2)N1CCCC1c1nncn1C1CCCC1 (centres undefined),–,inactive: 1.16%,–
O=c1ncn(Cc2ccccc2)c2ccc(-c3ccccc3)nc12,–,inactive: -17.4% [at 172 µM],–
CN(C)c1ccc(C(=O)N2CCN3C(=O)c4cc(-c5ccc6c(c5)OCO6)ccc4NC(=O)[C@H]3C2)cc1,"inconclusive: 39.8 µM [inhibitor, full curve, poor fit]",–,–
CCC1=C(C(=O)OC)C(c2ccccc2)N2C(CC(=O)N3CCCC3)=CSC2=N1 (centres undefined),"inconclusive: 39.8 µM [inhibitor, partial curve]",–,–
O=C(NCCc1ccc(Cl)cc1)c1nc(-c2ccccc2)c2ccccn12,"inconclusive: 56.2 µM [inhibitor, partial curve, poor fit]",–,–
Cc1ccc(NC(=O)c2nc3sccn3c2-c2cccc(C(F)(F)F)c2)cc1,"inconclusive: 39.8 µM [inhibitor, full curve]",–,–
COc1cccc(OCc2nc3c(n2Cc2ccccc2)C(=O)N(CCOc2ccccc2)CCN3)c1,active: 31.6 µM,–,–
CC(C)(C)c1ccc(-c2cc(C[C@H]3CNCC[C@H]3CC(=O)N3CCCCC3)no2)cc1,"inconclusive: 25.1 µM [inhibitor, full curve, poor fit]",–,–
COc1cccc(S(=O)(=O)N2CCCN(C(=O)C3CC3)c3ccccc32)c1,"inconclusive: 50.1 µM [inhibitor, partial curve, poor fit]",–,–
O=C(c1ccccc1Cl)N1CCCC(c2nn(-c3ccc(F)cc3)c(=O)[nH]2)C1 (centres undefined),"inconclusive: 50.1 µM [inhibitor, partial curve, poor fit]",–,–
CN(Cc1nccn1C)Cc1cnc(S(=O)(=O)CC2CC2)n1CC1CCCCC1,"inconclusive: 79.4 µM [inhibitor, partial curve, poor fit]",–,–
CC(=O)N1CCC(NC[C@H]2O[C@@H]3C[C@@H](CC(=O)NC(C)C)O[C@@H]3[C@@H]2O)CC1,–,inactive: -1.89% [at 172 µM],–
COc1ccccc1CN1CC[C@@](C)(O)[C@H](N2CCCC2)C1,"inconclusive: 44.7 µM [inhibitor, partial curve]",–,–
COc1ccc(N2CC(c3noc(-c4ccc(C)cc4C)n3)CC2=O)cc1 (centres undefined),"inconclusive: 70.8 µM [inhibitor, single point]",–,–
Cc1ccc(S(=O)(=O)N2CCC(Oc3ccc(C(N)=O)cn3)CC2)cc1,"inconclusive: 20 µM [inhibitor, full curve]",–,–
CN(C)CCN1C(=O)CC[C@]2(C(=O)NCc3cc(F)cc(F)c3)CCCC[C@@H]12,–,inactive: -3.99%,–
COc1ccc(Cn2c(C3CCN(C(=O)c4sccc4C)CC3)n[nH]c2=O)cc1,–,inactive: 17.7%,–
O=C(c1ccc2c(c1)OCO2)N1CC(Oc2ccc(F)c(F)c2)C1,–,inactive: -27.2%,–

Structure (SMILES),Potency,"activity change, negative = cytotoxicity",outcome
COc1ccc(CNC(=O)[C@@H]2CCC[C@@H](NC(=O)c3ccccc3)CN(C)C(=O)C2)cc1,–,inactive: -1.35%,–
CCN1c2cc(C(=O)NCc3cccc(F)c3)ccc2C(=O)N2CCCCC21 (centres undefined),"inconclusive: 89.1 µM [inhibitor, single point]",–,–
Clc1cccc(CN2CCOC[C@H](Oc3ccccc3)C2)c1,"inconclusive: 112 µM [inhibitor, partial curve]",–,–
Cc1nn(-c2ccccc2)c2c1C(C)N(C1CCN(C(=O)C3CC3)C1)C2=O (centres undefined),"inconclusive: 89.1 µM [inhibitor, single point]",–,–
COc1ccc(Cn2c(=O)c(C(=O)N3CCN(C(=O)C4CC4)CC3)nc3cccnc32)cc1,–,inactive: -9.41%,–
COC[C@@H]1[C@H](NC(=O)c2cc(S(N)(=O)=O)ccc2OC)[C@@H]2CCO[C@H]12,–,inactive: 4.48%,–
COc1ncccc1Nc1cnc2ccc(N(C)C)nn12,"inconclusive: 100 µM [inhibitor, partial curve, poor fit]",–,–
COCCN1Cc2sccc2N(C[C@@H](O)COCc2ccccc2)CCC1=O,"inconclusive: 79.4 µM [inhibitor, partial curve, poor fit]",–,–
c1cncc(Nc2cc3c(cn2)CN(CC2CCCCC2)CCN3)c1,"inconclusive: 22.4 µM [inhibitor, partial curve, poor fit]",–,–
COCC(=O)N[C@@H]1CN(Cc2ccc(C)cc2C)C[C@H]1CO,–,–,inactive
O=C(CCCn1cncn1)N1CCCC(CCc2ccccc2C(F)(F)F)C1 (centres undefined),"inconclusive: 20 µM [inhibitor, full curve, poor fit]",–,–
Fc1ccccc1-c1noc(-c2ncn3c2COC(c2ccccc2Cl)C3)n1 (centres undefined),"inconclusive: 56.2 µM [inhibitor, partial curve, poor fit]",–,–
Cc1noc2c(N(C)C)cc(-c3ccc(F)cc3)nc12,"inconclusive: 100 µM [inhibitor, partial curve, poor fit]",–,–
CC(C)CN(CC1CN(C(=O)NCc2ccccc2)CCO1)C(=O)c1ccc2c(c1)OCO2 (centres undefined),"inconclusive: 89.1 µM [inhibitor, partial curve, poor fit]",–,–
Cc1cc(C)cc(NC(=S)N[C@H]2CO[C@H]3[C@@H]2OC[C@H]3OC(=O)NC2CCCCC2)c1,"inconclusive: 100 µM [inhibitor, partial curve, poor fit]",–,–
CC1=C[C@@H](CNC(=O)C2CC2)[C@H](C(C)C)C[C@H]1Cc1nc2ccncc2[nH]1,"inconclusive: 79.4 µM [inhibitor, partial curve]",–,–
CCCNC(=O)CCC1CCN(C(=O)c2ccc(C)cc2)CC1,–,inactive: 5.93%,–
O=C1NCc2ccccc2CC12CCCN2Cc1ccnc2ccccc12 (centres undefined),"inconclusive: 44.7 µM [inhibitor, partial curve]",–,–
O=C(NCC1CCN(c2cc(-c3ccccc3)[nH]n2)CC1)c1ccc2nc[nH]c2c1,–,inactive: 3.04%,–
Cc1nc(-c2ccccc2OC2CN(S(=O)(=O)c3cn(C)cn3)C2)no1,–,inactive: 16.4%,–
CN(CCc1ccccn1)c1ccc(-c2nc(COc3ccccc3)no2)cn1,active: 35.5 µM,–,–
O=C(NCc1ccccn1)C1c2ccccc2C(=O)N(Cc2ccccc2)C12CCCC2 (centres undefined),"inconclusive: 44.7 µM [inhibitor, partial curve]",–,–

Structure (SMILES),Potency,"activity change, negative = cytotoxicity",outcome
COc1ccccc1C(=O)N1CCC(C(NC(=O)c2ccc(C)cc2)C(=O)N2CCCCC2)CC1 (centres undefined),–,inactive: -24.2%,–
CCc1ccccc1S(=O)(=O)Nc1cccn2nc(C(C)C)nc12,"inconclusive: 89.1 µM [inhibitor, partial curve, poor fit]",–,–
COc1ccc(C(=O)N2CCCCCCNC(=O)[C@@H]3C[C@@H](c4nc(-c5cccnc5)no4)C[C@@H]32)cc1,"inconclusive: 100 µM [inhibitor, single point]",–,–
Cc1ccc(C)c(S(=O)(=O)N2CCC(CC(=O)NCc3ccccc3)C2)c1 (centres undefined),"inconclusive: 70.8 µM [inhibitor, partial curve, poor fit]",–,–
O=C(NC[C@H]1OC[C@@H](N(Cc2ncc[nH]2)Cc2ncc[nH]2)[C@@H]1O)c1ccccc1,–,inactive: 4.83% [at 172 µM],–
CC(=O)Nc1ccc(CNC[C@H]2COCc3nc4cc(C)ccc4n32)cc1,"inconclusive: 89.1 µM [inhibitor, partial curve]",–,–
Cc1ccc(C(CC(=O)Nc2ccc(F)cc2)c2c[nH]c3ccccc23)cc1 (centres undefined),"inconclusive: 44.7 µM [inhibitor, partial curve, poor fit]",–,–
CN1CCN(Cc2nc(C3(O)CCN(Cc4ccc(C(F)(F)F)cc4)CC3)cs2)CC1,"inconclusive: 50.1 µM [inhibitor, partial curve, poor fit]",–,–
O=C(NCCOc1ccccc1)c1ccc2c(c1)OCCN(CCC(F)(F)F)C2,"inconclusive: 89.1 µM [inhibitor, partial curve]",–,–
CC(C)N1CCC(CCNC(=O)CCC[C@H]2NC[C@@H]3C[C@H]2CN(Cc2ccccc2)C3)CC1,–,inactive: 2.02%,–
COc1ccc(-c2noc(CC3CCN(C(=O)c4cc(Cl)ccc4OC)CC3)n2)cc1,active: 31.6 µM,–,–
O=[S+]1([O-])c2cccnc2O[C@@H](COCc2ccccc2)CN1CCc1ccccc1,"inconclusive: 28.2 µM [inhibitor, partial curve, poor fit]",–,–
CC(C)c1noc(-c2cn(C3CCN(C(=O)c4ccsc4)CC3)nn2)n1,–,inactive: -13.8%,–
Cn1cc(-c2cnc3[nH]cc(CC(=O)Nc4ccccc4Cl)c3c2)cn1,–,inactive: -11.3% [at 172 µM],–
CC(NC(=O)CCC(=O)c1ccc(F)cc1)C(=O)N1CCN(c2ccccn2)CC1 (centres undefined),"inconclusive: 100 µM [inhibitor, single point]",–,–
O=C(NC1CCCC1)C1CCCN1C(=O)c1cccc(-c2cccnc2)c1 (centres undefined),–,–,inactive
O=C(COc1ccc(F)cc1)N1CC(Oc2cccc(-c3nc(-c4ccccc4)no3)c2)C1,"inconclusive: 35.5 µM [inhibitor, full curve, poor fit]",–,–
CCCCc1cc(C[C@H]2CNCC[C@H]2CC(=O)NCc2ccc(F)cc2)no1,"inconclusive: 89.1 µM [inhibitor, partial curve, poor fit]",–,–
O=C(CCC1CCN(C(=O)c2ccccc2F)CC1)NCc1ccco1,–,inactive: -22.8%,–
COCCCNC(=O)c1cn2cc(-c3cccnc3)sc2n1,–,–,inactive
